# Source: the supplement of paper PMC8728848
# This is one part of the list.
# B1: Als3-N (Candida albicans) (protein)
# chain: KTITGVFNSFNSLTWSNAATYNYKGPGTPTWNAVLGWSLDGTSASPGDTFTLNMPCVFKFTTSQTSVDLTAHGVKYATCQFQAGEEFMTFSTLTCTVSNTLTPSIKALGTVTLPLAFNVGGTGSSVDLEDSKCFTAGTNTVTFNDGGKKISINVDFERSNVDPKGYLTDSRVIPSLNKVSTLFVAPQCANGYTSGTMGFANTYGDVQIDCSNIHVGITKGLNDWNYPVSSESFSYTKTCSSNGIFITYKNVPAGYRPFVDAYISATDVNSYTLSYANEYTCAGGYWQRAPFTLRWTGYRNSDAGSNGIVIVATTRTVTDSTTAVTTLPFDPNRDKTKTIEILKPIPTTTITTSYVGVTTSYLTKTAPIGETATVIVDIPYHTTTTVTSKWTGTITSTTTHTNPTDSIDTVIVQVP
# What was measured:
# Assay in all cases: glycan array binding signal (z-score within array); higher = stronger binding
# Settings in all cases: glycan notation: IUPAC condensed, linker removed
# [1] = molecular target: Fuc(a1-3)[Gal3S(b1-4)]GlcNAc
# Method in brief: (§1)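 Glycan array binding is given as a within-array Z-score, which can be read as non-binding when negative. The arrays, 3228 of them, came from the Consortium for Functional Glycomics database and were retained only where the protein sequence was available. Z-scores were averaged across arrays of the same protein sequence at different concentrations or buffers and across linkers.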
# [2] = molecular target: Fuc(a1-3)[Gal3S(b1-4)]GlcNAc6S
# Method in brief: as §1
# [3] = molecular target: Fuc(a1-3)[GalNAc(b1-4)]GlcNAc
# Method in brief: as §1
# [4] = molecular target: Fuc(a1-3)[GalNAc(b1-4)]GlcNAc6S
# Method in brief: as §1
# [5] = molecular target: Fuc(a1-4)GlcNAc
# Method in brief: as §1
# [6] = molecular target: Fuc(b1-3)GlcNAc
# Method in brief: as §1
# [7] = molecular target: Gal(a1-2)Gal
# Method in brief: as §1
# [8] = molecular target: Gal(a1-3)Gal
# Method in brief: as §1
# [9] = molecular target: Gal(a1-3)Gal(b1-3)GlcNAc
# Method in brief: as §1
# [10] = molecular target: Gal(a1-3)Gal(b1-3)GlcNAc(b1-2)Man
# Method in brief: as §1
# [11] = molecular target: Gal(a1-3)Gal(b1-3)GlcNAc(b1-2)Man(a1-3)[Gal(a1-3)Gal(b1-3)GlcNAc(b1-2)Man(a1-6)]Man(b1-4)GlcNAc(b1-4)GlcNAc
# Method in brief: as §1
# [12] = molecular target: Gal(a1-3)Gal(b1-3)GlcNAc(b1-3)GalNAc
# Method in brief: as §1
# [13] = molecular target: Gal(a1-3)Gal(b1-3)GlcNAc(b1-6)GalNAc
# Method in brief: as §1
# [14] = molecular target: Gal(a1-3)Gal(b1-3)[Fuc(a1-4)]GlcNAc(b1-2)Man(a1-3)[Gal(a1-3)Gal(b1-3)[Fuc(a1-4)]GlcNAc(b1-2)Man(a1-6)]Man(b1-4)GlcNAc(b1-4)GlcNAc
# Method in brief: as §1
# [15] = molecular target: Gal(a1-3)Gal(b1-4)Glc
# Method in brief: as §1
# [16] = molecular target: Gal(a1-3)Gal(b1-4)GlcNAc
# Method in brief: as §1
# [17] = molecular target: Gal(a1-3)Gal(b1-4)GlcNAc(b1-2)Man
# Method in brief: as §1
# [18] = molecular target: Gal(a1-3)Gal(b1-4)GlcNAc(b1-2)Man(a1-3)[Gal(a1-3)Gal(b1-4)GlcNAc(b1-2)Man(a1-6)]Man(b1-4)GlcNAc(b1-4)GlcNAc
# Method in brief: as §1
# [19] = molecular target: Gal(a1-3)Gal(b1-4)GlcNAc(b1-3)GalNAc
# Method in brief: as §1
# [20] = molecular target: Gal(a1-3)Gal(b1-4)GlcNAc(b1-6)GalNAc
# Method in brief: as §1
# [21] = molecular target: Gal(a1-3)Gal(b1-4)[Fuc(a1-3)]GlcNAc
# Method in brief: as §1
# [22] = molecular target: Gal(a1-3)Gal(b1-4)[Fuc(a1-3)]GlcNAc(b1-2)Man(a1-3)[Gal(a1-3)Gal(b1-4)[Fuc(a1-3)]GlcNAc(b1-2)Man(a1-6)]Man(b1-4)GlcNAc(b1-4)GlcNAc
# Method in brief: as §1
# [23] = molecular target: Gal(a1-3)GalNAc
# Method in brief: as §1
# [24] = molecular target: Gal(a1-3)[Gal(a1-4)]Gal(b1-4)GlcNAc
# Method in brief: as §1
# [25] = molecular target: Gal(a1-4)Gal(b1-3)GlcNAc(b1-2)Man(a1-3)[Gal(a1-4)Gal(b1-3)GlcNAc(b1-2)Man(a1-6)]Man(b1-4)GlcNAc(b1-4)GlcNAc
# Method in brief: as §1
# [26] = molecular target: Gal(a1-4)Gal(b1-4)Glc
# Method in brief: as §1
# [27] = molecular target: Gal(a1-4)Gal(b1-4)GlcNAc
# Method in brief: as §1
# [28] = molecular target: Gal(a1-4)Gal(b1-4)GlcNAc(b1-2)Man(a1-3)[Gal(a1-4)Gal(b1-4)GlcNAc(b1-2)Man(a1-6)]Man(b1-4)GlcNAc(b1-4)GlcNAc
# Method in brief: as §1
# [29] = molecular target: Gal(a1-4)Gal(b1-4)GlcNAc(b1-3)Gal(b1-4)Glc
# Method in brief: as §1
# [30] = molecular target: Gal(a1-4)GlcNAc
# Method in brief: as §1
# [31] = molecular target: Gal(a1-6)Glc
# Method in brief: as §1
# [32] = molecular target: Gal(b1-2)Gal
# Method in brief: as §1
# [33] = molecular target: Gal(b1-3)Gal
# Method in brief: as §1
# [34] = molecular target: Gal(b1-3)Gal(b1-4)GlcNAc
# Method in brief: as §1
# [35] = molecular target: Gal(b1-3)GalNAc
# Method in brief: as §1
# [36] = molecular target: Gal(b1-3)GalNAc(a1-3)[Fuc(a1-2)]Gal(b1-4)Glc
# Method in brief: as §1
# [37] = molecular target: Gal(b1-3)GalNAc(a1-3)[Fuc(a1-2)]Gal(b1-4)GlcNAc
# Method in brief: as §1
binder,measurement,setting,value
B1,glycan array binding signal (z-score),[1],-0.229
same,glycan array binding signal (z-score),[2],0.103
same,glycan array binding signal (z-score),[3],-0.095
same,glycan array binding signal (z-score),[4],0.068
same,glycan array binding signal (z-score),[5],0.178
same,glycan array binding signal (z-score),[6],-0.293
same,glycan array binding signal (z-score),[7],-0.249
same,glycan array binding signal (z-score),[8],-0.182
same,glycan array binding signal (z-score),[9],1.24
same,glycan array binding signal (z-score),[10],-0.243
same,glycan array binding signal (z-score),[11],0.126
same,glycan array binding signal (z-score),[12],-0.171
same,glycan array binding signal (z-score),[13],-0.314
same,glycan array binding signal (z-score),[14],-0.267
same,glycan array binding signal (z-score),[15],-0.069
same,glycan array binding signal (z-score),[16],-0.294
same,glycan array binding signal (z-score),[17],-0.138
same,glycan array binding signal (z-score),[18],0.109
same,glycan array binding signal (z-score),[19],-0.145
same,glycan array binding signal (z-score),[20],-0.245
same,glycan array binding signal (z-score),[21],-0.215
same,glycan array binding signal (z-score),[22],-0.071
same,glycan array binding signal (z-score),[23],-0.17
same,glycan array binding signal (z-score),[24],-0.221
same,glycan array binding signal (z-score),[25],1.12
same,glycan array binding signal (z-score),[26],-0.218
same,glycan array binding signal (z-score),[27],-0.303
same,glycan array binding signal (z-score),[28],-0.173
same,glycan array binding signal (z-score),[29],-0.286
same,glycan array binding signal (z-score),[30],-0.257
same,glycan array binding signal (z-score),[31],-0.279
same,glycan array binding signal (z-score),[32],-0.054
same,glycan array binding signal (z-score),[33],-0.195
same,glycan array binding signal (z-score),[34],-0.216
same,glycan array binding signal (z-score),[35],0.114
same,glycan array binding signal (z-score),[36],-0.158
same,glycan array binding signal (z-score),[37],-0.099
